The values that follow come from ChEMBL document CHEMBL4888484, “Replenishing the malaria drug discovery pipeline: Screening and hit evaluation of the MMV Hit Generation Library 1 (HGL1) against asexual blood stage Plasmodium falciparum ,using a nano luciferase reporter read-out” (2022).

Among all 150,000 compounds or so, about 540 (0.36%) showed an effect of 50% or more. This is one part of the list.

By % Inhibition is commonly meant the drop in the measured response relative to a control, in per cent.

The test relates to Plasmodium falciparum. In words: Primary screen in NF54 nanoGlo assay, in single point, at 2uM, 72h; a lower Z score goes with more inhibition. As to conditions: timepoint 72 hour. It counts as functional, Erythrocyte.
`CC(C)NC(=O)N(CCN1CCOCC1)CC(=O)N1CCCN(c2ccc(-c3ccccc3)nn2)CC1`: the “% Inhibition” value was -8% and the Z score was determined as 0.94.
On the same counts, the results for `CC(C)n1ccnc1CN[C@@H](C)c1cccc(-n2cccn2)c1` are -10% and 1.31.
On the same counts, the results for `Cc1nc(CO[C@H]2CCN(C(=O)c3ccc(-n4cnnn4)cc3)C2)cs1` are -4% and 0.67.
On the same counts, the results for `Cc1ccc(-c2nnc(NC(=O)c3cc4c(s3)CCOC4)[nH]2)s1` are 0% and 0.03.
On to `C[C@H]1CCCCN1CCN(C)Cc1nnc(C2CC2)o1`, for which the “% Inhibition” value is given as 0% and the Z score stood at 0.08.
On the same counts, the results for `CCN(CC)S(=O)(=O)NC(=O)c1ccc(C)c(C)c1` are -4% and 0.67.
On the same counts, the results for `CCn1ccc2ccc(CCC(=O)Nc3ccc(NC(C)=O)cc3)cc21` are -12% and 1.42.
The matching figures for `CC(C)(C)c1ccc(=O)n(CN(C2CCCCC2)C2CC2)n1`: -8% and 0.79.
Turning to `CCn1c(C(=O)NCCN2CCOCC2)cc2cc(NS(=O)(=O)c3ccc(Cl)cc3)ccc21`, the “% Inhibition” value was -1% and the Z score is 0.19.
Turning to `Cc1cc(S(=O)(=O)N[C@H]2CC[C@@H](CC(=O)O)C2)sc1C`, the “% Inhibition” value is -2% and the Z score was found to be 0.32.
The matching figures for `Cc1c(N2CCOCC2)c(C)n(Cc2ccccc2F)c1C(=O)NC(C)C`: -2% and 0.31.
On the same counts, the results for `CCc1nc2c(=O)n(CC(=O)NCC3CCCCC3)nc(C)c2s1` are 0% and 0.06.
Consider `CCOC(=O)c1cc(S(=O)(=O)N2CCC[C@H]2C(=O)Nc2cccc(C)c2C)cn1C`, for which the “% Inhibition” value was -6% and the Z score came to 1.17.
On the same counts, the results for `O=C(OCc1nc(-c2ccccc2)cs1)C1CCCC1` are 2% and -0.26.
On the same counts, the results for `CCOCc1cc(CN2CCC[C@H](CCC(=O)N(C)C3CCN(C)CC3)C2)ccc1OC` are -10% and 1.27.
On the same counts, the results for `O=C(Cc1cccc(O)c1)Nc1cc(C2CCCC2)[nH]n1` are -25% and 2.32.
As to `Cn1cc(NC(=O)C2=NN(c3ccccc3)[C@H](C(N)=O)C2)cn1`, the “% Inhibition” value is reported as -6% and the Z score came to 0.72.
The matching figures for `CCOC(=O)Cn1nc(C)c(NC(=O)c2ccncc2)c1C`: 0% and -0.05.
`CC(C)(CNC(=O)N1CCC[C@]2(CNC(=O)C2)C1)C1CCC1`: the “% Inhibition” value is given as -1% and the Z score is recorded as 0.19.
The matching figures for `COc1ccccc1Oc1ncnc(-c2ccccc2C)c1N`: 5% and -0.94.
On the same counts, the results for `COc1ccc2nc(C)c(C(=O)N3CCOC[C@@H]3CC(C)C)n2n1` are -11% and 1.52.
The matching figures for `O=C1NCCc2c1[nH]c1c(Cl)ccc(Cl)c21`: -14% and 2.19.
Regarding `O=C(NCc1nnc2n1CCC2)C1CC1C1CCCCC1` (stereo unspecified), the “% Inhibition” value is on record as 34% and the Z score is on record as -3.81.
Regarding `Cc1nc(O)cc(CN2CCCCC2)n1`, the “% Inhibition” value is recorded as -11% and the Z score is 1.95.
The matching figures for `O=C(NC[C@@]1(COc2ccccc2)C[C@@H](O)[C@@H](O)C1)C1CCCC1`: 15% and -1.77.
On the same counts, the results for `O=C(c1cc2cc(F)ccc2[nH]1)N1CC(O)(C(F)F)C1` are -7% and 0.95.
The matching figures for `CC(CNC(=O)C1CCCc2cn[nH]c21)Oc1ccc(Cl)cc1` (stereo unspecified): -7% and 1.03.
On to `CCCc1nc(C)cc(N2CCN(c3cc(=O)[nH]c(N)n3)CC2)n1`, for which the “% Inhibition” value is recorded as -1% and the Z score is 0.13.
The matching figures for `CCOc1cc2cc(c1)C(=O)N(C)CC(=O)N[C@@H]1CN(Cc3cnc(N)nc3)CC[C@@H]1OCc1cccc(c1)O2`: -23% and 2.88.
On the same counts, the results for `Cc1cccc2c1nc1n2[C@@H](CNC(=O)c2ccc(Cl)cc2)COC1` are -19% and 3.1.
Consider `O=C(Cn1nc2c(Oc3ccccc3)nc3ccccc3n2c1=O)NCc1ccc(F)cc1`, for which the “% Inhibition” value was -16% and the Z score worked out at 2.31.
The matching figures for `COc1ncccc1C(=O)NC[C@H]1CCCO1`: -3% and 0.35.
The matching figures for `C=CCc1cc(CN2CCC3(CC2)N=C(N(C)C)NC3=O)ccc1OC(C)C`: -4% and 0.78.
On the same counts, the results for `CS(=O)(=O)N1CCCN(Cc2cncn2C2CCCCC2)CC1` are 17% and -2.22.
For the molecule `Cc1cccc(N2C[C@H](C)N(C(=O)CCc3nc4ccccc4[nH]3)CC2=O)c1`, the “% Inhibition” value is given as 7% and the Z score is recorded as -1.36.
On the same counts, the results for `O=C(O)c1cccnc1NC[C@H]1CN(Cc2ccccc2)CC12CCOCC2` are -16% and 2.55.
The matching figures for `O=C(c1cc(=O)[nH]c2ccccc12)N1CCCN([C@H]2COC[C@@H]2O)CC1`: 0% and 0.04.
On the same counts, the results for `O=C(C[C@H]1CCCO1)Nc1cc(Br)c(F)cc1Cl` are 7% and -0.75.
For the molecule `CCc1nn(C)cc1NC(=O)NCC1CCC(S(C)(=O)=O)CC1` (stereo unspecified), the “% Inhibition” value is listed as -9% and the Z score came to 1.69.
On the same counts, the results for `CCN(CC)C(=O)N1CCNC[C@H]1c1ccncc1` are 5% and -0.92.
The matching figures for `CCCc1nnc(N(C)Cc2cc(C3CC3)on2)o1`: -13% and 1.87.
The matching figures for `Clc1ccc(-c2nnc3c4nnn(Cc5ccccc5Cl)c4ncn23)cc1`: -7% and 0.98.
Turning to `COc1ccc(CN2CCOC[C@H](Oc3ccccc3)C2)cn1`, the “% Inhibition” value amounted to 23% and the Z score was -2.68.
On the same counts, the results for `CC(C)CC(=O)N1CCCN(c2ccc(NC(=O)c3cccs3)cc2C(=O)NCc2ccc(F)cc2)CC1` are 7% and -0.91.
Regarding `Cn1nc(-c2ccc3c(c2)OCO3)ccc1=O`, the “% Inhibition” value is -2% and the Z score came out at 0.31.
Regarding `Cc1nc(C)n(CCCNS(=O)(=O)N2CCCCC2)n1`, the “% Inhibition” value is listed as -14% and the Z score is listed as 1.9.
Take `C[C@H](O)CNC(=O)C(=O)Nc1cc(Br)ccc1F`: the “% Inhibition” value is -8% and the Z score amounted to 1.06.
On the same counts, the results for `COC[C@@H]1[C@H](NC(=O)Cc2ccccc2Cl)[C@H]2CCO[C@H]21` are 14% and -2.51.
The matching figures for `O=C(c1ncccn1)N1CC[C@H](Oc2cccnn2)C1`: -7% and 0.78.
In the case of `COc1ccc(CNC(=O)N2CCc3[nH]c4c(Br)cccc4c3C2)cc1`, the “% Inhibition” value is on record as -7% and the Z score was 0.91.
On the same counts, the results for `COc1cc(OC)cc(C(=O)N2CCN(c3ccc(NC(=O)c4cc5ccccc5cc4OC)cc3)CC2)c1` are 28% and -3.14.
On the same counts, the results for `Cc1nnc(Cn2cnc(-c3ccccc3)c2-c2ccc3cccc(O)c3n2)o1` are -8% and 1.48.
Take `CCOC(=O)N1CCC(N2CCC(n3nccc3NC(=O)C3CCCC3)CC2)CC1`: the “% Inhibition” value is listed as -5% and the Z score is on record as 0.62.
The matching figures for `Cc1ccc(-c2cn[nH]c2[C@H]2CCCN(C(=O)C(C)(C)O)C2)cc1`: -14% and 2.64.
The matching figures for `CCOc1ccccc1CNC1CC(OC)(OC)C1`: -3% and 0.3.
The matching figures for `CC[C@H](NS(=O)(=O)c1cc(C(N)=O)cs1)C1CC(O)C1` (stereo partly specified): -8% and 0.94.
Take `CCCC(=O)NC(N1CC(C)OC(C)C1)C(Cl)(Cl)Cl` (stereo unspecified): the “% Inhibition” value was -13% and the Z score turned out to be 1.76.
On the same counts, the results for `O=C(c1cn2cccnc2n1)N1CCc2[nH]nc(-c3cccc(Cl)c3)c2C1` are 21% and -2.87.
`COc1ccccc1C1(CNC(=O)CN2CCOCC2)CCC1`: the “% Inhibition” value is given as 8% and the Z score is on record as -1.21.
On the same counts, the results for `CN1C[C@@H](c2nc(-c3cccc(OCC(F)F)n3)no2)NCC1=O` are 15% and -1.85.
The matching figures for `FC(F)(F)c1ccccc1-n1nc(C2CC2)nc1-c1ncn[nH]1`: -3% and 0.66.
In the case of `CC(C)c1nc2c(c(=O)n1CC(=O)N1CCN(c3ccccc3)CC1)CCN(Cc1ccccc1)C2`, the “% Inhibition” value is reported as 27% and the Z score is given as -3.06.
The matching figures for `Cc1ccoc1C(=O)C(C#N)C(=O)CC1CC2CCC1C2` (stereo unspecified): 0% and 0.
On the same counts, the results for `COc1ccc(OC)c(CCC(=O)N[C@@H](c2ccccc2)c2ccc3nc(C(F)(F)F)[nH]c3c2)c1` are -1% and 0.1.
On the same counts, the results for `O=C(NC1CCCCC1)N1C[C@H]2CCCc3nnc(-c4ccc(F)cc4)n3[C@H]2C1` are -18% and 1.69.
As to `Cc1csc(CNc2nc3ccccc3s2)n1`, the “% Inhibition” value is -1% and the Z score was found to be 0.14.
Regarding `CCS(=O)(=O)N1CCC[C@H](C(=O)NC(C)(C)C(=O)OC)C1`, the “% Inhibition” value is -5% and the Z score worked out at 0.66.
The matching figures for `CCN(Cc1nc2ccccc2c(=O)[nH]1)C(=O)c1cnn(-c2ccccc2)c1`: 31% and -3.96.
The matching figures for `Cc1c(NC(=O)[C@H]2CCc3nnc(C4CCOCC4)n3CC2)cccc1C(F)(F)F`: 36% and -4.79.
In the case of `Cc1cc(-c2ccccc2)nc(NCc2ccccc2Cl)c1S(=O)(=O)c1ccc(Cl)cc1`, the “% Inhibition” value is 7% and the Z score is recorded as -1.02.
`C[C@H](NC(=O)c1cccc(-n2nccc2-c2ccccc2)c1)C1CC1`: the “% Inhibition” value was -4% and the Z score is recorded as 0.62.
On the same counts, the results for `COc1ccc2nc3n(c2c1)[C@@H](CNCc1ccccn1)COC3` are -5% and 0.81.
On the same counts, the results for `Cc1nnc(-c2ccccc2C(=O)OCc2cccc3cn[nH]c23)o1` are -3% and 0.29.
Turning to `CN1CC[C@H](C(=O)NCC2(c3cccs3)CCCCC2)CC1=O`, the “% Inhibition” value was found to be 5% and the Z score is -0.65.
On the same counts, the results for `NC(=O)c1csc(CNCC2CN(C(=O)c3ccccc3)C3CCN2C3)c1` (stereo unspecified) are -10% and 1.08.
The matching figures for `Oc1cc(-c2ccc(Cl)cn2)cc2c1OCCN(c1cnccn1)C2`: -12% and 2.29.
On the same counts, the results for `CN1CCN(CC(=O)N2CCCCC2)C[C@@]12CCC(=O)N(CC1CC1)CC2` are -8% and 1.24.
Consider `CC(C)c1noc([C@H](C)NS(=O)(=O)N2CCN(C)CC2)n1`, for which the “% Inhibition” value is listed as -1% and the Z score came to 0.16.
For `COC(=O)COC(=O)c1csc(C)n1`, the “% Inhibition” value was 1% and the Z score is given as -0.12.
On the same counts, the results for `Cc1ccc(NC(=O)N2CCC[C@H]2c2ncc[nH]2)cc1Cl` are -4% and 0.67.
On to `CC[C@@H](CNC(=O)CCC(=O)c1ccc2c(c1)OCCCO2)c1ccccc1`, for which the “% Inhibition” value is on record as -5% and the Z score is 0.52.
On the same counts, the results for `CC[C@@H](O)CNC(=O)[C@@H]1CCCN(C(=O)OC(C)(C)C)[C@@H]1C` are -6% and 0.83.
For the molecule `CC(=O)NCCNCc1cc2cc(C)ccc2nc1OCc1cccc(F)c1`, the “% Inhibition” value was -3% and the Z score came to 0.51.
